# Measurements taken from PubChem BioAssay AID2147 (National Center for Advancing Translational Sciences (NCATS), 2009).
# Out of some 230,000 compounds screened, about 3,600 (1.6%) were called active. The shares of active, inactive and inconclusive entries below differ from those in the screen. Calls come from the whole dose curve; as a rule, active = well fitted inhibition curve with a large enough effect (not every such curve was filed as active); inconclusive = small, poorly fitted or top-dose-only effect, or another doubt; inactive = no such curve, though single readings can be large or run the other way. Potencies of inconclusive entries are doubtful fits and often do not repeat.
# Biological target: Lysine-specific demethylase 4E (Homo sapiens) (UniProt B2RXH2)
# Experiment: qHTS Assay for Inhibitors of Human Jumonji Domain Containing 2E (JMJD2E)
# Settings: JMJD2E catalytic domain, FDH-coupled NADH fluorescence (FDH is formaldehyde dehydrogenase); series mostly up to 57.1 µM; activity change, negative = inhibition: at the top concentration
# Note: nearly all actives have a fitted effect of over 50% in size.
# Potency is the fitted concentration of half-maximal effect; tags give direction and shape of the fitted curve.
# 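Throughout, for activity change, negative = inhibition: 0% = wells with enzyme and -100% = buffer wells without enzyme.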
# UniProt B2RXH2, sequence (B2RXH2 whole entry, looked up, the tested form may be a part): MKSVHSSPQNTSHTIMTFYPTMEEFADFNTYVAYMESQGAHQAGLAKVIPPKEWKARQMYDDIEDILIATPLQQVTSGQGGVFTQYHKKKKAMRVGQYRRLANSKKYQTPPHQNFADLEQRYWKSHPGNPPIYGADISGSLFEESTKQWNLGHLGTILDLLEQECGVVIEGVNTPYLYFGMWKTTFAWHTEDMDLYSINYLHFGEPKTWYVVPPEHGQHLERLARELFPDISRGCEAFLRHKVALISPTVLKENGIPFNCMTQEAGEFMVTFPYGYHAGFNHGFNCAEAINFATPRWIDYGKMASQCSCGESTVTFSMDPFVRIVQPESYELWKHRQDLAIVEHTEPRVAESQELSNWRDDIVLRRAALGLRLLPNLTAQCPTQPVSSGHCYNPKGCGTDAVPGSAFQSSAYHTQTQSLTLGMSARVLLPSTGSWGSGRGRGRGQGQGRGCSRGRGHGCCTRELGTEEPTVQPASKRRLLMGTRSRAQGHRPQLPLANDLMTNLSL
SMILES,Potency,"activity change, negative = inhibition"
COCCNc1ncnc2c1cnn2-c1ccc(Cl)cc1,"inconclusive: 28.2 µM [inhibitor, partial curve]",
CCOC(=O)c1sc(NC(=O)c2ccc(C)o2)nc1C,,inactive: -10.1%
COc1ccc(Cl)cc1C(=O)NNC(=O)CSc1nnc2ccccn12,"inconclusive: 25.1 µM [inhibitor, single point]",
O=C(Nc1cccc2ccccc12)N1CC=CCC1,"inconclusive: 28.2 µM [inhibitor, partial curve]",
O=C1NCCN1CCN1C(=O)c2ccccc2NC1c1ccccc1 (stereo not given),"inconclusive: 31.6 µM [inhibitor, partial curve]",
Cc1cc2cc(C)c(NCCNC(=O)c3cccs3)nc2cc1C,,inactive: -1.63%
O=C(CN1CCN(Cc2ccccc2)CC1)c1ccc(Br)cc1,,inactive: 1.56%
Cc1ccc(C(C(=O)NCc2ccc(F)cc2)N(CCCO)C(=O)C2COc3ccccc3O2)o1 (stereo not given),,inactive: -0.884%
COc1cc2c(c(OC)c1OC)CCc1cnoc1-2,"inconclusive: 35.5 µM [inhibitor, single point]",
CC[C@H]1C2=C3C(CC[C@H]4C(OCc5ccc(F)cc5C(F)(F)F)OC[C@](C)([C@@H]34)N(C(=O)OC(C)(C)C)C2)C(COC(C)=O)C1COC(C)=O (stereo not given in full),"inconclusive: 39.8 µM [inhibitor, single point]",
CC(=O)Nc1nc2ccccc2[nH]1,,inactive: -21%
CCS(=O)(=O)N1N=C(c2ccc(NS(C)(=O)=O)cc2)CC1c1ccccc1 (stereo not given),"inconclusive: 15.8 µM [inhibitor, partial curve]",
CC(=O)Nc1ccc2c(c1)C(=O)N(C1CCCCC1)C2=O,"inconclusive: 10 µM [inhibitor, partial curve]",
O=C(Cc1cc(=O)oc2cc(O)ccc12)NCC1CCC(C(=O)O)CC1 (stereo not given),"inconclusive: 3.55 µM [inhibitor, partial curve]",
Cc1cccc(/C=N/Nc2nncc3ccccc23)c1,"inconclusive: 31.6 µM [inhibitor, single point]",
COc1ccc2cc(N=Cc3nc(-c4ccc(C)cc4)oc3O)cnc2c1,"inconclusive: 28.2 µM [inhibitor, partial curve]",
O=S(=O)(c1ccc(F)c(F)c1F)N1CCN(C(=S)Nc2ccccc2)CC1,"inconclusive: 28.2 µM [inhibitor, single point]",
O=Cc1cc2cc3c(cc2nc1Cl)OCCO3,,inactive: -6.67%
C/C=C/Cn1c(SC)nc2c1c(=O)[nH]c(=O)n2C,"inconclusive: 2 µM [inhibitor, full curve, poor fit]",
Cc1ccc2[nH]c3c(c2c1)CCCC3=O,"inconclusive: 5.62 µM [inhibitor, single point]",
CCOCCOC(=O)C1=C(C)NC2=C(C(=O)CC(c3cccs3)C2)C1c1ccsc1 (stereo not given),"inconclusive: 3.16 µM [inhibitor, single point]",
CC1CC(C)(C)NC(=S)N1CCCC(=O)NCCc1ccc(Cl)cc1 (stereo not given),,inactive: -4.65%
COc1cccc(NC(=O)Cn2c(CCC(=O)O)ccc2-c2cccs2)c1,,inactive: -24.9%
O=C(CN1C(=O)c2ccccc2C1=O)NN1C(=O)c2ccccc2C1=O,"inconclusive: 8.91 µM [inhibitor, single point]",

SMILES,Potency,"activity change, negative = inhibition"
Cc1ccc(S(=O)(=O)N/N=C/c2ccc(OCC(=O)N3CCOCC3)cc2)cc1,"inconclusive: 14.1 µM [inhibitor, partial curve, poor fit]",
Cc1ccc(C(=O)NCCNc2ccc(Cl)cc2[N+](=O)[O-])o1,,inactive: -0.158%
Cc1ccn2cc(-c3cccc(NC(=O)C(C)C)c3)nc2c1,"inconclusive: 31.6 µM [inhibitor, partial curve]",
COc1ccc(Cn2nnnc2C(c2cc3ccc(OC)cc3[nH]c2=O)N2CCCCCC2)cc1 (stereo not given),"inconclusive: 31.6 µM [inhibitor, partial curve]",
COc1cccc(-c2cncnc2-n2ccnc2)c1,"inconclusive: 28.2 µM [inhibitor, partial curve]",
Cc1ccc(S(=O)(=O)N(C)C)cc1NC(=S)Nc1ccc2cn[nH]c2c1,"inconclusive: 14.1 µM [inhibitor, partial curve]",
O=C(Nc1cc(C(F)(F)F)ccc1N1CCOCC1)c1cn2ccccc2n1,"inconclusive: 10 µM [inhibitor, partial curve]",
CC(=O)c1c(O)cc(C)n(Nc2nc(C)cc(C)n2)c1=O,"inconclusive: 25.1 µM [inhibitor, single point]",
Cc1cc(C)n2ncc(C(=O)NCc3cccnc3)c2n1,"inconclusive: 35.5 µM [inhibitor, partial curve]",
CCOCC(=O)Nc1nnc(COCC)s1,,inactive: -2.24%
O=C(CN1CCC(N2CCCCC2)CC1)N1CCCc2ccccc21,"inconclusive: 31.6 µM [inhibitor, single point]",
COc1cc(OC)c2c(c1O)OC(c1ccccc1)CC2=O (stereo not given),,inactive: -28%
CC1(C)CCC=[N+]1[O-],,inactive: -3.34%
Cc1cccc(Cn2ncc(Cl)c(Cl)c2=O)c1,,inactive: 1.32%
O=C(CSc1cccc[n+]1[O-])CSc1cccc[n+]1[O-],"inconclusive: 8.91 µM [inhibitor, partial curve]",
CC(C)(C)C1CC=C2C(C#N)=C(N)C(C#N)(C#N)C(c3cccs3)C2C1 (stereo not given),"inconclusive: 22.4 µM [inhibitor, single point]",
Cc1cc(C)c(-c2csc(NC(=O)/C=C/c3cccs3)n2)c(C)c1,"inconclusive: 28.2 µM [inhibitor, single point]",
Cc1ccc(S(=O)(=O)c2cc3c(=O)n4ccccc4nc3n(C)c2=N)cc1,"inconclusive: 31.6 µM [inhibitor, partial curve]",
Cc1ccc(N2C(=O)C3N=NN(CC(=O)N4N=C(c5cccc6ccccc56)CC4c4ccccc4)C3C2=O)cc1 (stereo not given),"inconclusive: 31.6 µM [inhibitor, partial curve]",
CSc1nc(N2CCN(c3ccccc3)CC2)cc(N2CCN(c3ccccc3)CC2)n1,"inconclusive: 22.4 µM [inhibitor, single point]",
CCC(=O)N(Cc1cc2cc(OC)ccc2[nH]c1=O)c1ccccc1C,"inconclusive: 35.5 µM [inhibitor, partial curve]",
CCc1ccc(-c2nc(CSCC(=O)N3CCN(c4ccccn4)CC3)c(C)o2)cc1,"inconclusive: 35.5 µM [inhibitor, single point]",
Cc1ccc2[nH]c(=O)c(CN(CC3COCCO3)C(=O)Nc3ccccc3C)cc2c1 (stereo not given),"inconclusive: 25.1 µM [inhibitor, single point]",
CCCCc1c(C)nc2c(OC)cccc2c1SCC(=O)O,"inconclusive: 35.5 µM [inhibitor, partial curve]",

SMILES,Potency,"activity change, negative = inhibition"
Fc1ccc2[nH]c3c(Cl)ncnc3c2c1,"inconclusive: 22.4 µM [inhibitor, partial curve]",
Cc1ccc(SCc2[nH]nc3c2C(c2ccco2)C(C#N)=C(N)O3)cc1 (stereo not given),"inconclusive: 8.91 µM [inhibitor, full curve, poor fit]",
Cc1ccc2nc(-c3ccc(N4C(=O)CC(N5CCCC(C)C5)C4=O)cc3)sc2c1 (stereo not given),"inconclusive: 31.6 µM [inhibitor, partial curve]",
Cc1cccc(S(=O)(=O)Nc2nc3ccccc3nc2Nc2ccc3c(c2)OCO3)c1,,inactive: -4.61%
COc1ccc(C(C)(C)C)cc1NC(=O)c1cc(S(=O)(=O)N(C)C)ccc1N1CCCC1,"inconclusive: 39.8 µM [inhibitor, single point]",
Cn1cccc1CC(=O)N/N=C/C(Cl)=C/c1ccccc1,"inconclusive: 22.4 µM [inhibitor, single point]",
CCOC(=O)c1cc2cc(OC)ccc2[nH]1,"inconclusive: 31.6 µM [inhibitor, partial curve]",
COc1cc(OC)cc(C2=NCCN2)c1,"inconclusive: 39.8 µM [inhibitor, single point]",
COc1ccccc1CN(CC(=O)NCC1CCCO1)C(=O)CNS(=O)(=O)c1ccc(C)cc1 (stereo not given),,inactive: 5.63%
C#CCn1cc(/C=N/Nc2nc3ccccc3[nH]2)c2ccccc21,,inactive: 1.34%
Cc1cc(-c2ccccc2)nc(N(C)NC(=O)c2ccc(Cl)cc2)c1S(C)(=O)=O,"inconclusive: 39.8 µM [inhibitor, single point]",
Cc1ccc(Nc2c([N+](=O)[O-])c(=O)oc3ccccc23)cc1,,inactive: -15.5%
O=C1c2ccccc2NC(c2cccs2)N1NS(=O)(=O)c1ccccc1 (stereo not given),"inconclusive: 31.6 µM [inhibitor, partial curve]",
O=C(NNC1CC(=O)N(c2ccc(F)cc2)C1=O)c1cccnc1 (stereo not given),,inactive: 4.09%
NC(=NC1CCCCC1)c1ccc(Cl)cc1,"inconclusive: 0.02 µM [inhibitor, full curve, poor fit]",
CC1CN(c2nn3c(=O)c4ccccc4nc3c3ccccc23)CC(C)O1 (stereo not given),"inconclusive: 14.1 µM [inhibitor, partial curve]",
Cn1c(=O)c2c(nc(N/N=C/c3ccncc3)n2Cc2ccccc2)n(C)c1=O,,inactive: 4.94%
COC(=O)[C@H]1[C@H]2CC3c4[nH]c5ccccc5c4CCN3C[C@@H]2CC[C@@H]1O (stereo not given in full),,inactive: -2.71%
Fc1ccccc1-c1nc(-c2ccccc2)oc1NC1CCCCC1,,inactive: -1.62%
CCCCCn1c(=O)[nH]c2cc(C(=O)NCc3ccccn3)ccc2c1=O,"inconclusive: 39.8 µM [inhibitor, single point]",
CCOC(=O)C1C(=O)C(C(=O)OCC)C(c2cccnc2)NC1c1cccnc1 (stereo not given),"inconclusive: 25.1 µM [inhibitor, partial curve]",
CN1C/C(=C/c2ccsc2)C(=O)/C(=C/c2ccsc2)C1,"inconclusive: 35.5 µM [inhibitor, single point]",
